Results on 26 compounds are retold here after patent US7592316B2, “Peptides as NS3-serine protease inhibitors of hepatitis C virus” (Schering Corporation, priority 2000, dated 2009).

Molecules are shown by their SMILES. *1 amine or outer side, *2 acyl side, *3 side chain or, on linkers, in order; H or OH if unused. Where a SMILES comes first, the peptide text is derived from it. [ ]: non-standard residue; d: D form. The star is where a group is joined. ξ: configuration not given here. ξβ3hAbu(2-oxo,5,5,5-F3) = O=C(C(=O)[*:2])C(CC(F)(F)F)N[*:1]; Pro(3R,4S-CMe2) = CC1(C)[C@@H]2[C@@H](C(=O)O)NC[C@@H]21; ξ(3-Amino-2-oxopentanoyl) = CCC(N[*:1])C(=O)C(=O)[*:2]; Pro(3S,4R-CCl2) = O=C(O)[C@H]1NC[C@H]2[C@@H]1C2(Cl)Cl; Pro(3S,4R-(CH2)3) = O=C(O)[C@H]1NC[C@@H]2CCC[C@@H]21; ξPro(4R-OtBu) = CC(C)(C)O[C@H]1CNC(C(=O)O)C1; X50 = O=C(C(=O)[*:2])C(CCCC(F)(F)F)N[*:1]; X54 = O=C(C(=O)[*:2])C(CCC(F)(F)F)N[*:1]; X96 = CCC(F)(F)CC(N[*:1])C(=O)C(=O)[*:2]; X32 = O=C(C(=O)[*:2])C(CC1CCC1)N[*:1]; X81 = O=C(C(=O)[*:2])C(CCC(F)F)N[*:1]; X84 = O=C(C(=O)[*:2])C(CC1COC1)N[*:1]; CH2(1-naphthyl) = c1ccc2c(C*)cccc2c1; X8 = O=C(C(=O)[*:2])C(CC1CC1)N[*:1]; X16 = O=C(C(=O)[*:2])C1(N[*:1])CC1; X4 = CCCCC(N[*:1])C(=O)C(=O)[*:2]; X71 = COCC(N[*:1])C(=O)C(=O)[*:2]; Hyp = O=C(O)[C@@H]1C[C@@H](O)CN1; X2 = CCCC(N[*:1])C(=O)C(=O)[*:2]; Aad = N[C@@H](CCCC(=O)O)C(=O)O; Chg = N[C@H](C(=O)O)C1CCCCC1; Phg = N[C@H](C(=O)O)c1ccccc1; X35 = O=C(CN[*:1])C(=O)[*:2]; Boc = CC(C)(C)OC(=O)*; ξP = O=C(O)C1CCCN1; OtBu = CC(C)(C)O*; tBu = CC(C)(C)*

The first assay concerns the target HCV NS3/NS4A protease (strain 1a) (Hepatitis C virus genotype 1a, UniProt P27958). The assay can be described thus: biochemical. The settings on record: Compounds prepared by Solid Phase Synthesis, Table 3; read-out: Ki* CLASS.
On to `CCCC(NC(=O)[C@@H]1C[C@@H](OC(C)(C)C)CN1C(=O)[C@@H](NC(=O)OC(C)(C)C)C1CCCCC1)C(=O)C(=O)NCC(=O)N[C@@H](CC(=O)OC(C)(C)C)C(N)=O` (some centres unmarked) (Boc-[Chg][Hyp](tBu)[X2]GD(OtBu)-NH2), for which the Ki is over 1 µM.
Still for that read-out and setting: the value for `CCCC(NC(=O)[C@@H]1C[C@@H](OC(C)(C)C)CN1C(=O)[C@@H](NC(=O)OC(C)(C)C)C1CCCCC1)C(=O)C(=O)NCC(=O)N[C@@H](CCC(=O)OC(C)(C)C)C(N)=O` (some centres unmarked) (Boc-[Chg][Hyp](tBu)[X2]GE(OtBu)-NH2) was over 1 µM; that for `CCCC(NC(=O)[C@@H]1C[C@@H](OC(C)(C)C)CN1C(=O)[C@@H](NC(=O)OC(C)(C)C)C1CCCCC1)C(=O)C(=O)NCC(=O)N[C@@H](COC(C)(C)C)C(N)=O` (some centres unmarked) (Boc-[Chg][Hyp](tBu)[X2]GS(tBu)-NH2) was over 1 µM; that for `CCCC(NC(=O)[C@@H]1C[C@@H](OC(C)(C)C)CN1C(=O)[C@@H](NC(=O)OC(C)(C)C)C1CCCCC1)C(=O)C(=O)NCC(=O)N[C@@H](CCCC(=O)OC(C)(C)C)C(N)=O` (some centres unmarked) (Boc-[Chg][Hyp](tBu)[X2]G[Aad](OtBu)-NH2) was over 1 µM.
Same read-out and setting: then `CCCCC(NC(=O)C1CCCN1C(=O)[C@@H](NC(=O)OC(C)(C)C)C1CCCCC1)C(=O)C(=O)N[C@@H](C)C(=O)N[C@H](C(N)=O)C1CCCCC1` (some centres unmarked) (Boc-[Chg][ξP][X4]A[Chg]-NH2), with over 1 µM.
`CCCCC(NC(=O)C1CCCN1C(=O)[C@@H](NC(=O)OC(C)(C)C)C1CCCCC1)C(=O)C(=O)NCC(=O)N[C@H](C(N)=O)C1CCCCC1` (some centres unmarked) (Boc-[Chg][ξP][X4]G[Chg]-NH2): the inhibitory constant (Ki) was over 1 µM.
Still for that read-out and setting: then `C[C@H](NC(=O)C(=O)C(CC1CC1)NC(=O)C1CCCN1C(=O)[C@@H](NC(=O)OC(C)(C)C)C1CCCCC1)C(=O)N[C@H](C(N)=O)c1ccccc1` (some centres unmarked) (Boc-[Chg][ξP][X8]A[Phg]-NH2), with over 1 µM; and `CC(C)(C)OC(=O)N[C@H](C(=O)N1CCCC1C(=O)NC(CC1CC1)C(=O)C(=O)NCC(=O)N[C@H](C(N)=O)c1ccccc1)C1CCCCC1` (some centres unmarked) (Boc-[Chg][ξP][X8]G[Phg]-NH2), with over 1 µM.
As for `CCCCC(NC(=O)C1C[C@@H](OC(C)(C)C)CN1C(=O)[C@@H](NC(=O)OC(C)(C)C)C1CCCCC1)C(=O)C(=O)N[C@@H](C)C(=O)N[C@H](C(N)=O)C1CCCCC1` (stereo partly drawn) (Boc-[Chg][ξPro(4R-OtBu)][X4]A[Chg]-NH2), the Ki was over 1 µM.
On to `CCCCC(NC(=O)C1C[C@@H](OC(C)(C)C)CN1C(=O)[C@@H](NC(=O)OC(C)(C)C)C1CCCCC1)C(=O)C(=O)NCC(=O)N[C@H](C(N)=O)C1CCCCC1` (stereo partly drawn) (Boc-[Chg][ξPro(4R-OtBu)][X4]G[Chg]-NH2), for which the Ki is over 1 µM.

Still in this assay, the particulars now being: Table 5; HCV NS3/NS4A protease, spectrophotometric assay, 30° C., pH 6.5; read-out: Ki* Range.
As for `CCCC(NC(=O)[C@@H]1C[C@@H](OCc2cccc3ccccc23)CN1C(=O)[C@@H](NC(=O)OC(C)(C)C)C1CCCCC1)C(=O)C(=O)NCC(=O)N[C@H](C(=O)N(C)C)c1ccccc1` (some centres unmarked) (Boc-[Chg][Hyp](CH2(1-naphthyl))[X2]G[Phg]-NMe2), the Ki lay in the range of 0.001 to 0.1 µM.
Take `CN(C)C(=O)[C@@H](NC(=O)CNC(=O)C(=O)C1(NC(=O)[C@@H]2[C@@H]3[C@H](CN2C(=O)[C@@H](NC(=O)OC(C)(C)C)C2CCCCC2)C3(C)C)CC1)c1ccccc1` (Boc-[Chg][Pro(3R,4S-CMe2)][X16]G[Phg]-NMe2): the Ki was over 1 µM.
For `CN(C)C(=O)[C@@H](NC(=O)CNC(=O)C(=O)CNC(=O)[C@@H]1[C@@H]2[C@H](CN1C(=O)[C@@H](NC(=O)OC(C)(C)C)C1CCCCC1)C2(C)C)c1ccccc1` (Boc-[Chg][Pro(3R,4S-CMe2)][X35]G[Phg]-NMe2), the Ki is over 1 µM.
Still for that read-out and setting: then `COCC(NC(=O)[C@@H]1[C@@H]2[C@H](CN1C(=O)[C@@H](NC(=O)OC(C)(C)C)C1CCCCC1)C2(C)C)C(=O)C(=O)NCC(=O)N[C@H](C(=O)N(C)C)c1ccccc1` (stereo partly drawn) (Boc-[Chg][Pro(3R,4S-CMe2)][X71]G[Phg]-NMe2), with 0.101 to 1 µM; and `CCC(NC(=O)[C@@H]1[C@@H]2[C@H](CN1C(=O)[C@@H](NC(=O)OC(C)(C)C)C1CCCCC1)C2(C)C)C(=O)C(=O)NCC(=O)N[C@H](C(=O)N(C)C)c1ccccc1` (stereo partly drawn) (Boc-[Chg][Pro(3R,4S-CMe2)][ξ(3-Amino-2-oxopentanoyl)]G[Phg]-NMe2), with 0.001 to 0.1 µM.
For the compound `CN(C)C(=O)[C@@H](NC(=O)CNC(=O)C(=O)C(CC(F)(F)F)NC(=O)[C@@H]1[C@@H]2[C@H](CN1C(=O)[C@@H](NC(=O)OC(C)(C)C)C1CCCCC1)C2(C)C)c1ccccc1` (stereo partly drawn) (Boc-[Chg][Pro(3R,4S-CMe2)][ξβ3hAbu(2-oxo,5,5,5-F3)]G[Phg]-NMe2), the Ki was 0.101 to 1 µM.

Staying with this assay, now noted: Table 6; HCV NS3/NS4A protease, 30° C., pH 6.5; read-out: Ki*.
Consider `CN(C)C(=O)[C@@H](NC(=O)CNC(=O)C(=O)C(CC1CC1)NC(=O)[C@@H]1[C@@H]2[C@H](CN1C(=O)[C@@H](NC(=O)OC(C)(C)C)C1CCCCC1)C2(C)C)c1ccccc1` (stereo partly drawn) (Boc-[Chg][Pro(3R,4S-CMe2)][X8]G[Phg]-NMe2), for which the Ki lay in the range of 0.001 to 0.1 µM.
The same measure, in the same setting: the value for `CN(C)C(=O)[C@@H](NC(=O)CNC(=O)C(=O)C(CCCC(F)(F)F)NC(=O)[C@@H]1[C@@H]2[C@H](CN1C(=O)[C@@H](NC(=O)OC(C)(C)C)C1CCCCC1)C2(C)C)c1ccccc1` (stereo partly drawn) (Boc-[Chg][Pro(3R,4S-CMe2)][X50]G[Phg]-NMe2) was 0.001 to 0.1 µM; that for `CN(C)C(=O)[C@@H](NC(=O)CNC(=O)C(=O)C(CCC(F)(F)F)NC(=O)[C@@H]1[C@@H]2[C@H](CN1C(=O)[C@@H](NC(=O)OC(C)(C)C)C1CCCCC1)C2(C)C)c1ccccc1` (stereo partly drawn) (Boc-[Chg][Pro(3R,4S-CMe2)][X54]G[Phg]-NMe2) was 0.001 to 0.1 µM; that for `CN(C)C(=O)[C@@H](NC(=O)CNC(=O)C(=O)C(CCC(F)F)NC(=O)[C@@H]1[C@@H]2[C@H](CN1C(=O)[C@@H](NC(=O)OC(C)(C)C)C1CCCCC1)C2(C)C)c1ccccc1` (stereo partly drawn) (Boc-[Chg][Pro(3R,4S-CMe2)][X81]G[Phg]-NMe2) was 0.001 to 0.1 µM.
The same measure, in the same setting: the value for `CN(C)C(=O)[C@@H](NC(=O)CNC(=O)C(=O)C(CC1COC1)NC(=O)[C@@H]1[C@@H]2[C@H](CN1C(=O)[C@@H](NC(=O)OC(C)(C)C)C1CCCCC1)C2(C)C)c1ccccc1` (stereo partly drawn) (Boc-[Chg][Pro(3R,4S-CMe2)][X84]G[Phg]-NMe2) was 0.001 to 0.1 µM; that for `CCC(F)(F)CC(NC(=O)[C@@H]1[C@@H]2[C@H](CN1C(=O)[C@@H](NC(=O)OC(C)(C)C)C1CCCCC1)C2(C)C)C(=O)C(=O)NCC(=O)N[C@H](C(=O)N(C)C)c1ccccc1` (stereo partly drawn) (Boc-[Chg][Pro(3R,4S-CMe2)][X96]G[Phg]-NMe2) was 0.001 to 0.1 µM.
Take `CN(C)C(=O)[C@@H](NC(=O)CNC(=O)C(=O)C(CC1CC1)NC(=O)[C@@H]1[C@H]2CCC[C@H]2CN1C(=O)[C@@H](NC(=O)OC(C)(C)C)C1CCCCC1)c1ccccc1` (stereo partly drawn) (Boc-[Chg][Pro(3S,4R-(CH2)3)][X8]G[Phg]-NMe2): the Ki is 0.001 to 0.1 µM.
Same read-out and setting: then `CN(C)C(=O)[C@@H](NC(=O)CNC(=O)C(=O)C(CC1CCC1)NC(=O)[C@@H]1[C@H]2CCC[C@H]2CN1C(=O)[C@@H](NC(=O)OC(C)(C)C)C1CCCCC1)c1ccccc1` (stereo partly drawn) (Boc-[Chg][Pro(3S,4R-(CH2)3)][X32]G[Phg]-NMe2), with 0.001 to 0.1 µM; and `CN(C)C(=O)[C@@H](NC(=O)CNC(=O)C(=O)C(CCC(F)F)NC(=O)[C@@H]1[C@H]2CCC[C@H]2CN1C(=O)[C@@H](NC(=O)OC(C)(C)C)C1CCCCC1)c1ccccc1` (stereo partly drawn) (Boc-[Chg][Pro(3S,4R-(CH2)3)][X81]G[Phg]-NMe2), with 0.001 to 0.1 µM.
For `CN(C)C(=O)[C@@H](NC(=O)CNC(=O)C(=O)C(CC1CCC1)NC(=O)[C@@H]1[C@@H]2[C@H](CN1C(=O)[C@@H](NC(=O)OC(C)(C)C)C1CCCCC1)C2(Cl)Cl)c1ccccc1` (stereo partly drawn) (Boc-[Chg][Pro(3S,4R-CCl2)][X32]G[Phg]-NMe2), the inhibitory constant (Ki) lay within 0.001 to 0.1 µM.

By Ki is commonly meant a measure of affinity in units of concentration, obtained from inhibition or displacement.
